# Some of the results follow.
# B1: PNA (Arachis hypogaea), P02872 (protein)
# chain: MKPFCVFLTFFLLLAASSKKVDSAETVSFNFNSFSEGNPAINFQGDVTVLSNGNIQLTNLNKVNSVGRVLYAMPVRIWSSATGNVASFLTSFSFEMKDIKDYDPADGIIFFIAPEDTQIPAGSIGGGTLGVSDTKGAGHFVGVEFDTYSNSEYNDPPTDHVGIDVNSVDSVKTVPWNSVSGAVVKVTVIYDSSTKTLSVAVTNDNGDITTIAQVVDLKAKLPERVKFGFSASGSLGGRQIHLIRSWSFTSTLITTTRRSIDNNEKKIMNMASA
# Tests used:
# Assay in all cases: glycan array binding signal (z-score within array); higher = stronger binding
# Settings in all cases: glycan notation: IUPAC condensed, linker removed
# [1] = target: GlcNAc(b1-3)[GlcNAc(b1-6)]Gal(b1-4)GlcNAc(b1-3)[GlcNAc(b1-6)]Gal(b1-4)GlcNAc(b1-3)Gal(b1-4)Glc
# How it was run: (§1)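 The Consortium for Functional Glycomics database supplied 3228 glycan arrays, of which those lacking an available protein sequence were dropped. The binding signal, a within-array Z-score, was averaged across arrays of the same protein sequence and across linkers. Negative scores can be read as non-binding.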
# [2] = target: GlcNAc(b1-3)[GlcNAc(b1-6)]GalNAc
# How it was run: as §1
# [3] = target: GlcNAc(b1-3)[GlcNAc(b1-6)]GlcNAc(b1-4)GlcNAc
# How it was run: as §1
# GlcNAc(b1-4)Fuc = target: GlcNAc(b1-4)Fuc
# How it was run: as §1
# [4] = target: GlcNAc(b1-4)Gal(b1-4)GlcNAc
# How it was run: as §1
# GlcNAc(b1-4)GlcNAc = target: GlcNAc(b1-4)GlcNAc
# How it was run: as §1
# [5] = target: GlcNAc(b1-4)GlcNAc(b1-4)GlcNAc
# How it was run: as §1
# [6] = target: GlcNAc(b1-4)GlcNAc(b1-4)GlcNAc(b1-4)GlcNAc
# How it was run: as §1
# [7] = target: GlcNAc(b1-4)GlcNAc(b1-4)GlcNAc(b1-4)GlcNAc(b1-4)GlcNAc
# How it was run: as §1
# [8] = target: GlcNAc(b1-4)GlcNAc(b1-4)GlcNAc(b1-4)GlcNAc(b1-4)GlcNAc(b1-4)GlcNAc
# How it was run: as §1
# [9] = target: GlcNAc(b1-4)GlcNAc(b1-4)GlcNAc(b1-4)GlcNAc(b1-4)GlcNAc(b1-4)GlcNAc(b1-4)GlcNAc
# How it was run: as §1
# [10] = target: GlcNAc(b1-4)GlcNAc(b1-4)GlcNAc(b1-4)GlcNAc(b1-4)GlcNAc(b1-4)GlcNAc(b1-4)GlcNAc(b1-4)GlcNAc
# How it was run: as §1
# [11] = target: GlcNAc(b1-4)[GlcNAc(b1-6)]GalNAc
# How it was run: as §1
# [12] = target: GlcNAc(b1-6)Gal(b1-4)GlcNAc
# How it was run: as §1
# GlcNAc(b1-6)GalNAc = target: GlcNAc(b1-6)GalNAc
# How it was run: as §1
# GlcNAc3Prop(b1-4)GlcNAc = target: GlcNAc3Prop(b1-4)GlcNAc
# How it was run: as §1
# [13] = target: GlcNAc6S(b1-3)Gal(b1-4)GlcNAc
# How it was run: as §1
# [14] = target: HexA(a1-3)GalNAc4S(b1-4)GlcA(b1-3)GalNAc4S
# How it was run: as §1
# [15] = target: HexA(a1-3)GalNAc4S(b1-4)GlcA(b1-3)GalNAc4S(b1-4)GlcA(b1-3)GalNAc4S(b1-4)GlcA(b1-3)GalNAc4S(b1-4)GlcA(b1-3)GalNAc4S(b1-4)GlcA(b1-3)GalNAc4S(b1-4)GlcA(b1-3)GalNAc4S
# How it was run: as §1
# [16] = target: HexA(a1-3)GalNAc4S(b1-4)IdoA(a1-3)GalNAc4S
# How it was run: as §1
# [17] = target: HexA(a1-3)GalNAc4S(b1-4)IdoA(a1-3)GalNAc4S(b1-4)IdoA(a1-3)GalNAc4S(b1-4)IdoA(a1-3)GalNAc4S(b1-4)IdoA(a1-3)GalNAc4S(b1-4)IdoA(a1-3)GalNAc4S(b1-4)IdoA(a1-3)GalNAc4S
# How it was run: as §1
# [18] = target: HexA(a1-3)GalNAc6S(b1-4)GlcA(b1-3)GalNAc6S
# How it was run: as §1
# [19] = target: HexA(a1-3)GalNAc6S(b1-4)GlcA(b1-3)GalNAc6S(b1-4)GlcA(b1-3)GalNAc6S(b1-4)GlcA(b1-3)GalNAc6S(b1-4)GlcA(b1-3)GalNAc6S(b1-4)GlcA(b1-3)GalNAc6S(b1-4)GlcA(b1-3)GalNAc6S
# How it was run: as §1
# HexA2S(a1-4)GlcNS6S = target: HexA2S(a1-4)GlcNS6S
# How it was run: as §1
# [20] = target: HexA6S(a1-4)GlcNS6S(a1-4)IdoA2S(a1-4)GlcNS6S
# How it was run: as §1
# [21] = target: HexA6S(a1-4)GlcNS6S(a1-4)IdoA2S(a1-4)GlcNS6S(a1-4)IdoA2S(a1-4)GlcNS6S(a1-4)IdoA2S(a1-4)GlcNS6S(a1-4)IdoA2S(a1-4)GlcNS6S(a1-4)IdoA2S(a1-4)GlcNS6S(a1-4)IdoA2S(a1-4)GlcNS6S
# How it was run: as §1
# Kdn(a2-3)Gal(b1-3)GalNAc = target: Kdn(a2-3)Gal(b1-3)GalNAc
# How it was run: as §1
# [22] = target: Kdn(a2-3)Gal(b1-3)GalNAc(b1-4)[Kdn(a2-3)]Gal(b1-4)Glc
# How it was run: as §1
# Kdn(a2-3)Gal(b1-3)GlcNAc = target: Kdn(a2-3)Gal(b1-3)GlcNAc
# How it was run: as §1
# [23] = target: Kdn(a2-3)Gal(b1-3)GlcNAc(b1-3)Gal(b1-4)Glc
# How it was run: as §1
# Kdn(a2-3)Gal(b1-4)Glc = target: Kdn(a2-3)Gal(b1-4)Glc
# How it was run: as §1
# Kdn(a2-3)Gal(b1-4)GlcNAc = target: Kdn(a2-3)Gal(b1-4)GlcNAc
# How it was run: as §1
# [24] = target: Kdn(a2-3)Gal(b1-4)[Fuc(a1-3)]GlcNAc
# How it was run: as §1
# [25] = target: Kdn(a2-3)Gal(b1-4)[Fuc(a1-3)]GlcNAc(b1-3)Gal
# How it was run: as §1
# [26] = target: Kdn(a2-3)Gal(b1-4)[Fuc(a1-3)]GlcNAc(b1-3)Gal(b1-4)Glc
# How it was run: as §1
# [27] = target: Kdn(a2-3)Gal(b1-4)[Rha(a1-3)]GlcNAc(b1-3)Gal(b1-4)Glc
# How it was run: as §1
# [28] = target: Kdn(a2-3)[GalNAc(b1-4)]Gal(b1-4)Glc
# How it was run: as §1
# Kdn(a2-6)Gal = target: Kdn(a2-6)Gal
# How it was run: as §1
binder,measurement,setting,value
B1,glycan array binding signal (z-score),[1],2.02
same,glycan array binding signal (z-score),[2],-0.173
same,glycan array binding signal (z-score),[3],-0.199
same,glycan array binding signal (z-score),GlcNAc(b1-4)Fuc,-0.195
same,glycan array binding signal (z-score),[4],-0.247
same,glycan array binding signal (z-score),GlcNAc(b1-4)GlcNAc,-0.113
same,glycan array binding signal (z-score),[5],-0.075
same,glycan array binding signal (z-score),[6],-0.195
same,glycan array binding signal (z-score),[7],0.085
same,glycan array binding signal (z-score),[8],0.099
same,glycan array binding signal (z-score),[9],-0.195
same,glycan array binding signal (z-score),[10],-0.195
same,glycan array binding signal (z-score),[11],-0.177
same,glycan array binding signal (z-score),[12],-0.204
same,glycan array binding signal (z-score),GlcNAc(b1-6)GalNAc,-0.208
same,glycan array binding signal (z-score),GlcNAc3Prop(b1-4)GlcNAc,-0.125
same,glycan array binding signal (z-score),[13],-0.159
same,glycan array binding signal (z-score),[14],-0.195
same,glycan array binding signal (z-score),[15],-0.195
same,glycan array binding signal (z-score),[16],-0.195
same,glycan array binding signal (z-score),[17],-0.195
same,glycan array binding signal (z-score),[18],-0.195
same,glycan array binding signal (z-score),[19],-0.195
same,glycan array binding signal (z-score),HexA2S(a1-4)GlcNS6S,-0.195
same,glycan array binding signal (z-score),[20],-0.195
same,glycan array binding signal (z-score),[21],-0.195
same,glycan array binding signal (z-score),Kdn(a2-3)Gal(b1-3)GalNAc,-0.14
same,glycan array binding signal (z-score),[22],-0.195
same,glycan array binding signal (z-score),Kdn(a2-3)Gal(b1-3)GlcNAc,-0.26
same,glycan array binding signal (z-score),[23],-0.195
same,glycan array binding signal (z-score),Kdn(a2-3)Gal(b1-4)Glc,-0.178
same,glycan array binding signal (z-score),Kdn(a2-3)Gal(b1-4)GlcNAc,-0.187
same,glycan array binding signal (z-score),[24],-0.119
same,glycan array binding signal (z-score),[25],-0.195
same,glycan array binding signal (z-score),[26],-0.195
same,glycan array binding signal (z-score),[27],-0.195
same,glycan array binding signal (z-score),[28],-0.195
same,glycan array binding signal (z-score),Kdn(a2-6)Gal,-0.195
